# Reference: the supplement of paper PMC8728848
# The list shows a part of the results.
# Tests used:
# Test in all cases: glycan array binding signal (z-score within array); higher = stronger binding
# Details in all cases: glycan notation: IUPAC condensed, linker removed
# [1] = target: Fuc(a1-2)Gal
# Method in brief: (§1)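 From the Consortium for Functional Glycomics database, 3228 arrays were curated, keeping only those whose protein sequence was available. Binding is given as a within-array Z-score averaged across arrays sharing a protein sequence and across linkers. Negative Z-scores can be read as non-binding.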
# [2] = target: Fuc(a1-2)Gal(b1-3)GalNAc
# Method in brief: as §1
# [3] = target: Fuc(a1-2)Gal(b1-3)GalNAc(a1-3)[Fuc(a1-2)]Gal(b1-4)Glc
# Method in brief: as §1
# [4] = target: Fuc(a1-2)Gal(b1-3)GalNAc(a1-3)[Fuc(a1-2)]Gal(b1-4)GlcNAc
# Method in brief: as §1
# [5] = target: Fuc(a1-2)Gal(b1-3)GalNAc(b1-3)Gal
# Method in brief: as §1
# [6] = target: Fuc(a1-2)Gal(b1-3)GalNAc(b1-3)Gal(a1-4)Gal(b1-4)Glc
# Method in brief: as §1
# [7] = target: Fuc(a1-2)Gal(b1-3)GalNAc(b1-4)[Neu5Ac(a2-3)]Gal(b1-4)Glc
# Method in brief: as §1
# [8] = target: Fuc(a1-2)Gal(b1-3)GlcNAc
# Method in brief: as §1
# [9] = target: Fuc(a1-2)Gal(b1-3)GlcNAc(b1-2)Man(a1-3)[Fuc(a1-2)Gal(b1-3)GlcNAc(b1-2)Man(a1-6)]Man(b1-4)GlcNAc(b1-4)GlcNAc
# Method in brief: as §1
# [10] = target: Fuc(a1-2)Gal(b1-3)GlcNAc(b1-2)Man(a1-3)[Fuc(a1-2)Gal(b1-3)GlcNAc(b1-2)Man(a1-6)]Man(b1-4)GlcNAc(b1-4)[Fuc(a1-6)]GlcNAc
# Method in brief: as §1
# [11] = target: Fuc(a1-2)Gal(b1-3)GlcNAc(b1-3)Gal(b1-4)Glc
# Method in brief: as §1
# [12] = target: Fuc(a1-2)Gal(b1-3)GlcNAc(b1-3)GalNAc
# Method in brief: as §1
# [13] = target: Fuc(a1-2)Gal(b1-3)GlcNAc(b1-3)[Fuc(a1-2)Gal(b1-3)GlcNAc(b1-6)]GalNAc
# Method in brief: as §1
# [14] = target: Fuc(a1-2)Gal(b1-3)GlcNAc(b1-3)[Fuc(a1-3)[Gal(b1-4)]GlcNAc(b1-6)]Gal(b1-4)Glc
# Method in brief: as §1
# [15] = target: Fuc(a1-2)Gal(b1-3)GlcNAc(b1-3)[Gal(b1-4)GlcNAc(b1-6)]Gal(b1-4)Glc
# Method in brief: as §1
# [16] = target: Fuc(a1-2)Gal(b1-3)GlcNAc(b1-3)[Neu5Ac(a2-6)Gal(b1-4)GlcNAc(b1-6)]Gal(b1-4)Glc
# Method in brief: as §1
# [17] = target: Fuc(a1-2)Gal(b1-3)GlcNAc6S
# Method in brief: as §1
# [18] = target: Fuc(a1-2)Gal(b1-3)[Fuc(a1-4)]GlcNAc
# Method in brief: as §1
# [19] = target: Fuc(a1-2)Gal(b1-3)[Fuc(a1-4)]GlcNAc(b1-2)Man(a1-3)[Fuc(a1-2)Gal(b1-3)[Fuc(a1-4)]GlcNAc(b1-2)Man(a1-3)]Man(b1-4)GlcNAc(b1-4)GlcNAc
# Method in brief: as §1
# [20] = target: Fuc(a1-2)Gal(b1-3)[Fuc(a1-4)]GlcNAc(b1-2)Man(a1-3)[Fuc(a1-2)Gal(b1-3)[Fuc(a1-4)]GlcNAc(b1-2)Man(a1-6)]Man(b1-4)GlcNAc(b1-4)GlcNAc
# Method in brief: as §1
# [21] = target: Fuc(a1-2)Gal(b1-3)[Fuc(a1-4)]GlcNAc(b1-2)Man(a1-3)[Fuc(a1-2)Gal(b1-3)[Fuc(a1-4)]GlcNAc(b1-2)Man(a1-6)]Man(b1-4)GlcNAc(b1-4)[Fuc(a1-6)]GlcNAc(b1-4)[Fuc(a1-6)]GlcNAc
# Method in brief: as §1
# [22] = target: Fuc(a1-2)Gal(b1-3)[Fuc(a1-4)]GlcNAc(b1-3)[Fuc(a1-3)[Gal(b1-4)]GlcNAc(b1-6)]Gal(b1-4)Glc
# Method in brief: as §1
# [23] = target: Fuc(a1-2)Gal(b1-3)[Fuc(a1-4)]GlcNAc(b1-3)[Gal(b1-4)GlcNAc(b1-6)]Gal(b1-4)Glc
# Method in brief: as §1
# [24] = target: Fuc(a1-2)Gal(b1-4)Fuc(a1-3)]GlcNAc(b1-2)Man(a1-3)[Fuc(a1-2)Gal(b1-4)[Fuc(a1-3)]GlcNAc(b1-2)Man(a1-6)]Man(b1-4)GlcNAc(b1-4)GlcNAc
# Method in brief: as §1
# [25] = target: Fuc(a1-2)Gal(b1-4)Glc
# Method in brief: as §1
# [26] = target: Fuc(a1-2)Gal(b1-4)Glc6S
# Method in brief: as §1
# [27] = target: Fuc(a1-2)Gal(b1-4)GlcNAc
# Method in brief: as §1
# [28] = target: Fuc(a1-2)Gal(b1-4)GlcNAc(b1-2)Man
# Method in brief: as §1
# [29] = target: Fuc(a1-2)Gal(b1-4)GlcNAc(b1-2)Man(a1-3)[Fuc(a1-2)Gal(b1-4)GlcNAc(b1-2)Man(a1-6)]Man(b1-4)GlcNAc(b1-4)GlcNAc
# Method in brief: as §1
# [30] = target: Fuc(a1-2)Gal(b1-4)GlcNAc(b1-2)Man(a1-3)[Fuc(a1-2)Gal(b1-4)GlcNAc(b1-2)Man(a1-6)]Man(b1-4)GlcNAc(b1-4)[Fuc(a1-6)]GlcNAc
# Method in brief: as §1
binder,measurement,setting,value
"Gal 4 (Mus musculus), P56470 (protein) MAYVPAPGYQPTYNPTLPYYQPIPGGLNVGMSVYIQGVASEHMKRFFVNFVVGQDPGSDVAFHFNPRFDGWDKVVFNTLQGGKWGSEERKRSMPFKKGAAFELVFIVLAEHYKVVVNGNPFYEYGHRLPLQMVTHLQVDGDLQLQSINFIGGQPLRPQGPPMMPPYPGPGHCHQQLNSLPTMEGPPTFNPPVPYFGRLQGGLTARRTIIIKGYVPPTGKSFAINFKVGSSGDIALHINPRMGNGTVVRNSLLNGSWGSEEKKITHNPFGPGQFFDLSIRCGLDRFKVYANGQHLFDFAHRLSAFQRVDTLEIQGDVTLSYVQI",glycan array binding signal (z-score),[1],-0.214
same,glycan array binding signal (z-score),[2],-0.221
same,glycan array binding signal (z-score),[3],2.12
same,glycan array binding signal (z-score),[4],3.62
same,glycan array binding signal (z-score),[5],-0.235
same,glycan array binding signal (z-score),[6],-0.231
same,glycan array binding signal (z-score),[7],-0.226
same,glycan array binding signal (z-score),[8],-0.185
same,glycan array binding signal (z-score),[9],-0.167
same,glycan array binding signal (z-score),[10],-0.224
same,glycan array binding signal (z-score),[11],0.659
same,glycan array binding signal (z-score),[12],-0.188
same,glycan array binding signal (z-score),[13],-0.299
same,glycan array binding signal (z-score),[14],-0.175
same,glycan array binding signal (z-score),[15],-0.089
same,glycan array binding signal (z-score),[16],-0.276
same,glycan array binding signal (z-score),[17],4.25
same,glycan array binding signal (z-score),[18],-0.235
same,glycan array binding signal (z-score),[19],-0.287
same,glycan array binding signal (z-score),[20],-0.168
same,glycan array binding signal (z-score),[21],-0.312
same,glycan array binding signal (z-score),[22],-0.212
same,glycan array binding signal (z-score),[23],-0.193
same,glycan array binding signal (z-score),[24],-0.243
same,glycan array binding signal (z-score),[25],-0.196
same,glycan array binding signal (z-score),[26],0.723
same,glycan array binding signal (z-score),[27],-0.232
same,glycan array binding signal (z-score),[28],-0.328
same,glycan array binding signal (z-score),[29],-0.128
same,glycan array binding signal (z-score),[30],-0.243
